The list shows a part of the results. The full chains were built here from the parent and the listed change. Values near 0.05 are background.
B1: TEV protease; numbered along this chain (parent)
chain: MGESLFKGPRDYNPISSSICHLTNESDGHTTSLYGIGFGPFIITNKHLFRRNNGTLVVQSLHGVFKVKDTTTLQQHLVDGRDMIIIRMPKDFPPFPQKLKFREPQREERICLVTTNFQTKSMSSMVSDTSCTFPSGDGIFWKHWIQTKDGQCGSPLVSTRDGFIVGIHSASNFTNTNNYFTSVPKNFMELLTNQEAQQWVSGWRLNADSVLWGGHKVFMVKPEEPFQPVKEATQL

Variants of: B1
Test: raw area under fraction-flipped curve 0-4 h after induction (AUC4h, not background-subtracted), DNA-recorder readout of cleavage of the substrate (dimensionless); higher = more cleavage of the substrate by the protease variant
Details: temperature: 34 °C; time window: 0-4 h after rhamnose induction
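Note: Bxb1 expression induced with 0.2% (w/v) L-rhamnose at OD600 near 0.5, cultures sampled hourly, flipped fraction per protease–substrate barcode pair counted by paired-end Illumina sequencing.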

| Variant | area with substrate GNLYFQS | area with substrate HNLYFQS | area with substrate KNLYFQS | area with substrate LNLYFQS | area with substrate NNLYFQS | area with substrate SNLYFQS | area with substrate WNLYFQS | area with substrate YNLYFQS | area with substrate INLYFQS | area with substrate PNLYFQS |
| --- | --- | --- | --- | --- | --- | --- | --- | --- | --- | --- |
| MGESLFKGPRDYNPISSSICHLTNESDGHTTSLYGIGFGPFIITNKHLFRRNNGTLVVQSLHGVFKVKDTTTLQQHLVDGRDMIIIRMPKDFPPFPQKLKFREPQREERICLVTTNFQTKSMSSMVSDTSCTFPSGDGIFWKHWIQTKDGQCGSPLVSTRDGFIVGIHSASNFTNTNNYFTSVPKNFMELLTNQEAQQWVSGWRLNANSVLWGGHKVFMVKPEEPFQPVKEATQL [D208N] | 0.0613 | 0.0601 | 0.0612 | 0.0685 | 0.0737 | 0.0617 | 0.0596 | 0.0718 | – | – |
| MGESLFKGPRDYNPISSSICHLTNESDGHTTSLYGIGFGPFIITNKHLFRRNNGTLVVQSLHGVFKVKDTTTLQQHLVDGRDMIIIRMPKDFPPFPQKLKFREPQREERICLVTTNFQTKSMSSMVSDTSCTFPSGDGIFWKHWIQTKDGQCGSPLVSTRDGFIVGIHSASNFTNTNNYFTSVPKNFMELLTNQEAQQWVSGWRLNASSVLWGGHKVFMVKPEEPFQPVKEATQL [D208S] | 0.0761 | 0.0569 | 0.0481 | – | 0.0685 | – | – | – | 0.0506 | 0.0633 |
| MGESLFKGPRDYNPISSSICHLTNESDGHTTSLYGIGFGPFIITNKHLFRRNNGTLVVQSLHGVFKVKDTTTLQQHLVDGRDMIIIRMPKDFPPFPQKLKFREPQREERICLVTTNFQTKSMSSMVSDTSCTFPSGDGIFWKHWIQTKDGQCGSPLVSTRDGFIVGIHSASNFTNTNNYFTSVPKNFMELLTNQEAQQWVSGWRLNADSVLWGGHKVFMVKPEEPFQPVKEKTQL [A232K] | 0.0958 | – | – | 0.0695 | – | 0.0709 | – | – | – | – |
| MGESLFKGPRDYNPISSSICHLTNESDGHTTSLYGIGFGPFIITNKHLFRRNNGTLVVQSLHGVFKVKDTTTLQQHLVDGRDMIIIRMPKDFPPFPQKLKFREPQREERICLVTTNFQTKSMSSMVSDTSCTFPSGDGIFWKHWIQTKDGQCGSPLVSTRDGFIVGIHSASNFTNTNNYFTSVPKNFMELLTNQEAQQWVSGWRLNADSVLWGGHKVFMVKPEEPFQPVKEWTQL [A232W] | – | – | 0.074 | – | – | 0.0601 | – | 0.0655 | 0.0621 | – |
| MGESLFKGPRDYNPISSSICHLTNESDGHTTSLYGIGFGPFIITNKHLFRRNNGTLVVQSLHGVFKVKDTTTLQQHLVDGRDMIIIRMPKDFPPFPQKLKFREPQREERICLVTTNFQTKSMSSMVSDTSCTFPSGDGIFWKHWIQTKDGQCGSPLVSTRDGFIVGIHSASNFTNTNNYFTSVPKNFMELLTNQEAQQWVSGWRLNADSVLWGGHKVFMVKPEWPFQPVKEATQL [E224W] | 0.0604 | 0.0609 | 0.0624 | 0.0763 | 0.0623 | 0.0573 | 0.0597 | – | 0.0616 | 0.0767 |
| MGESLFKGPRDYNPISSSICHLTNESDGHTTSLYGIGFGPFIITNKHLFRRNNGTLVVQSLHGVFKVKDTTTLQQHLVDGRDMIIIRMPKDFPPFPQKLKFREPQREERICLVTTNFQTKSMSSMVSDTSCTFPSGDGIFWKHWIQTKDGQCGSPLVSTRDGFIVGIHSASNFTNTNNYFTSVPKNFMELLTNQEAQQWVSGWRLNADSVLWGGHKVFMVKPEHPFQPVKEATQL [E224H] | 0.0646 | 0.0621 | 0.0497 | – | – | 0.0809 | 0.0515 | 0.0722 | – | – |
| MGESLFKGPRDYNPISSSICHLTNESDGHTTSLYGIGFGPFIITNKHLFRRNNGTLVVQSLHGVFKVKDTTTLQQHLVDGRDMIIIRMPKDFPPFPQKLKFREPQREERICLVTTNFQTKSMSSMVSDTSCTFPSGDGIFWKHWIQTKDGQMGSPLVSTRDGFIVGIHSASNFTNTNNYFTSVPKNFMELLTNQEAQQWVSGWRLNADSVLWGGHKVFMVKPEEPFQPVKEATQL [C152M] | – | 0.0509 | 0.0535 | 0.0693 | – | – | – | 0.0482 | – | – |
| MGESLFKGPRDYNPISSSICHLTNESDGHTTSLYGIGFGPFIITNKHLFRRNNGTLVVQSLHGVFKVKDTTTLQQHLVDGRDMIIIRMPKDFPPFPQKLKFREPQREERICLVTTNFQTKSMSSMVSDTSCTFPSGDGIFWKHWIQTKDGQKGSPLVSTRDGFIVGIHSASNFTNTNNYFTSVPKNFMELLTNQEAQQWVSGWRLNADSVLWGGHKVFMVKPEEPFQPVKEATQL [C152K] | – | – | – | 0.0342 | 0.0489 | – | 0.0562 | 0.0523 | 0.0531 | 0.0549 |
| MGESLFKAPRDYNPISSSICHLTNESDGHTTSLYGIGFGPFIITNKHLFRRNNGTLVVQSLHGVFKVKDTTTLQQHLVDGRDMIIIRMPKDFPPFPQKLKFREPQREERICLVTTNFQTKSMSSMVSDTSCTFPSGDGIFWKHWIQTKDGQCGSPLVSTRDGFIVGIHSASNFTNTNNYFTSVPKNFMELLTNQEAQQWVSGWRLNADSVLWGGHKVFMVKPEEPFQPVKEATQL [G8A] | – | 0.0665 | 0.0672 | – | – | 0.0764 | 0.0579 | – | – | – |
| MGESLFKGPRDYNPISSSICHLTNESDGHTTSLYGIGFGPFIITNKHLFRRNNGTLVVQSLHGVFKVKDTTTLQQHLVDGRDMIIIRMPKDFPPFPQKLKFREPQREERICLVTTNFQTKSMSSMVSDTSCTFPSGDGIFWKHWIQTKDGQCGSPLVSTRDGFIVGIHSASNFTNTNNYFTSVPKNFMELLTNQEAQQWSSGWRLNADSVLWGGHKVFMVKPEEPFQPVKEATQL [V200S] | – | – | – | 0.0572 | – | – | – | – | – | – |
| MGESLFKGPRDYNPISSSICHLTNESDGHTTSLYGIGFGPFIITNKHLFRRNNGTLVVQSLHGVFKVKDTTTLQQHLVDGRDMIIIRMPKDFPPFPQKLKFREPQREERICLVTTNFQTKSMSSMVSDTSCTFPSGDGIFWKHWIQTKDGQCGSPLVSTRDGFIVGIHSASNFTNTNNYFTSVPKNFMELLTNQEAQQWWSGWRLNADSVLWGGHKVFMVKPEEPFQPVKEATQL [V200W] | – | 0.0611 | – | 0.0628 | – | 0.0646 | 0.0624 | – | 0.0547 | 0.0499 |

Same assay, conditions: temperature: 34 °C; time window: 0-4 h after rhamnose induction

| Variant | area with substrate TNLYFQS | area with substrate DNLYFQS | area with substrate FNLYFQS | area with substrate MNLYFQS | area with substrate QNLYFQS | area with substrate RNLYFQS | area with substrate VNLYFQS |
| --- | --- | --- | --- | --- | --- | --- | --- |
| MGESLFKGPRDYNPISSSICHLTNESDGHTTSLYGIGFGPFIITNKHLFRRNNGTLVVQSLHGVFKVKDTTTLQQHLVDGRDMIIIRMPKDFPPFPQKLKFREPQREERICLVTTNFQTKSMSSMVSDTSCTFPSGDGIFWKHWIQTKDGQCGSPLVSTRDGFIVGIHSASNFTNTNNYFTSVPKNFMELLTNQEAQQWVSGWRLNASSVLWGGHKVFMVKPEEPFQPVKEATQL [D208S] | 0.0773 | – | – | – | – | – | – |
| MGESLFKGPRDYNPISSSICHLTNESDGHTTSLYGIGFGPFIITNKHLFRRNNGTLVVQSLHGVFKVKDTTTLQQHLVDGRDMIIIRMPKDFPPFPQKLKFREPQREERICLVTTNFQTKSMSSMVSDTSCTFPSGDGIFWKHWIQTKDGQCGSPLVSTRDGFIVGIHSASNFTNTNNYFTSVPKNFMELLTNQEAQQWVSGWRLNADSVLWGGHKVFMVKPEEPFQPVKEKTQL [A232K] | 0.0541 | 0.111 | 0.0634 | – | – | – | – |
| MGESLFKGPRDYNPISSSICHLTNESDGHTTSLYGIGFGPFIITNKHLFRRNNGTLVVQSLHGVFKVKDTTTLQQHLVDGRDMIIIRMPKDFPPFPQKLKFREPQREERICLVTTNFQTKSMSSMVSDTSCTFPSGDGIFWKHWIQTKDGQCGSPLVSTRDGFIVGIHSASNFTNTNNYFTSVPKNFMELLTNQEAQQWVSGWRLNADSVLWGGHKVFMVKPEEPFQPVKEWTQL [A232W] | – | – | 0.0782 | – | – | – | – |
| MGESLFKGPRDYNPISSSICHLTNESDGHTTSLYGIGFGPFIITNKHLFRRNNGTLVVQSLHGVFKVKDTTTLQQHLVDGRDMIIIRMPKDFPPFPQKLKFREPQREERICLVTTNFQTKSMSSMVSDTSCTFPSGDGIFWKHWIQTKDGQCGSPLVSTRDGFIVGIHSASNFTNTNNYFTSVPKNFMELLTNQEAQQWVSGWRLNADSVLWGGHKVFMVKPEWPFQPVKEATQL [E224W] | 0.0726 | 0.0742 | 0.0674 | 0.0545 | 0.0692 | 0.0652 | 0.0723 |
| MGESLFKGPRDYNPISSSICHLTNESDGHTTSLYGIGFGPFIITNKHLFRRNNGTLVVQSLHGVFKVKDTTTLQQHLVDGRDMIIIRMPKDFPPFPQKLKFREPQREERICLVTTNFQTKSMSSMVSDTSCTFPSGDGIFWKHWIQTKDGQCGSPLVSTRDGFIVGIHSASNFTNTNNYFTSVPKNFMELLTNQEAQQWVSGWRLNADSVLWGGHKVFMVKPEHPFQPVKEATQL [E224H] | 0.0639 | 0.0581 | – | – | – | – | – |
| MGESLFKGPRDYNPISSSICHLTNESDGHTTSLYGIGFGPFIITNKHLFRRNNGTLVVQSLHGVFKVKDTTTLQQHLVDGRDMIIIRMPKDFPPFPQKLKFREPQREERICLVTTNFQTKSMSSMVSDTSCTFPSGDGIFWKHWIQTKDGQMGSPLVSTRDGFIVGIHSASNFTNTNNYFTSVPKNFMELLTNQEAQQWVSGWRLNADSVLWGGHKVFMVKPEEPFQPVKEATQL [C152M] | 0.0538 | – | 0.0611 | – | – | – | – |
| MGESLFKGPRDYNPISSSICHLTNESDGHTTSLYGIGFGPFIITNKHLFRRNNGTLVVQSLHGVFKVKDTTTLQQHLVDGRDMIIIRMPKDFPPFPQKLKFREPQREERICLVTTNFQTKSMSSMVSDTSCTFPSGDGIFWKHWIQTKDGQKGSPLVSTRDGFIVGIHSASNFTNTNNYFTSVPKNFMELLTNQEAQQWVSGWRLNADSVLWGGHKVFMVKPEEPFQPVKEATQL [C152K] | 0.0524 | – | 0.0711 | – | 0.0514 | 0.0615 | – |
| MGESLFKAPRDYNPISSSICHLTNESDGHTTSLYGIGFGPFIITNKHLFRRNNGTLVVQSLHGVFKVKDTTTLQQHLVDGRDMIIIRMPKDFPPFPQKLKFREPQREERICLVTTNFQTKSMSSMVSDTSCTFPSGDGIFWKHWIQTKDGQCGSPLVSTRDGFIVGIHSASNFTNTNNYFTSVPKNFMELLTNQEAQQWVSGWRLNADSVLWGGHKVFMVKPEEPFQPVKEATQL [G8A] | – | – | – | – | – | – | 0.0557 |
| MGESLFKGPRDYNPISSSICHLTNESDGHTTSLYGIGFGPFIITNKHLFRRNNGTLVVQSLHGVFKVKDTTTLQQHLVDGRDMIIIRMPKDFPPFPQKLKFREPQREERICLVTTNFQTKSMSSMVSDTSCTFPSGDGIFWKHWIQTKDGQCGSPLVSTRDGFIVGIHSASNFTNTNNYFTSVPKNFMELLTNQEAQQWSSGWRLNADSVLWGGHKVFMVKPEEPFQPVKEATQL [V200S] | – | 0.0476 | – | 0.0592 | – | – | – |
| MGESLFKGPRDYNPISSSICHLTNESDGHTTSLYGIGFGPFIITNKHLFRRNNGTLVVQSLHGVFKVKDTTTLQQHLVDGRDMIIIRMPKDFPPFPQKLKFREPQREERICLVTTNFQTKSMSSMVSDTSCTFPSGDGIFWKHWIQTKDGQCGSPLVSTRDGFIVGIHSASNFTNTNNYFTSVPKNFMELLTNQEAQQWWSGWRLNADSVLWGGHKVFMVKPEEPFQPVKEATQL [V200W] | 0.056 | 0.0592 | – | 0.0564 | – | – | – |

Reference: the supplement of paper PMC12217912
